Measurements as given in article PMC6078440, “Structural and functional analysis of Dickkopf 4 (Dkk4): New insights into Dkk evolution and regulation of Wnt signaling by Dkk and Kremen proteins” (The Journal of Biological Chemistry, 2018).
No constants are given. Whether binding was seen depends on the method and setting. For some of these results: Binding seen in cells or lysates may run through a third protein. Some results given as binding are weak or reduced against the parent protein; the word gives no strength. Tags and fused reporters may be left off the sequences shown.

Sequences of proteins named here, by UniProt entry; tags and fusion partners are left off. Residues count along the entry.
UniProt O75581, residues 20-1613: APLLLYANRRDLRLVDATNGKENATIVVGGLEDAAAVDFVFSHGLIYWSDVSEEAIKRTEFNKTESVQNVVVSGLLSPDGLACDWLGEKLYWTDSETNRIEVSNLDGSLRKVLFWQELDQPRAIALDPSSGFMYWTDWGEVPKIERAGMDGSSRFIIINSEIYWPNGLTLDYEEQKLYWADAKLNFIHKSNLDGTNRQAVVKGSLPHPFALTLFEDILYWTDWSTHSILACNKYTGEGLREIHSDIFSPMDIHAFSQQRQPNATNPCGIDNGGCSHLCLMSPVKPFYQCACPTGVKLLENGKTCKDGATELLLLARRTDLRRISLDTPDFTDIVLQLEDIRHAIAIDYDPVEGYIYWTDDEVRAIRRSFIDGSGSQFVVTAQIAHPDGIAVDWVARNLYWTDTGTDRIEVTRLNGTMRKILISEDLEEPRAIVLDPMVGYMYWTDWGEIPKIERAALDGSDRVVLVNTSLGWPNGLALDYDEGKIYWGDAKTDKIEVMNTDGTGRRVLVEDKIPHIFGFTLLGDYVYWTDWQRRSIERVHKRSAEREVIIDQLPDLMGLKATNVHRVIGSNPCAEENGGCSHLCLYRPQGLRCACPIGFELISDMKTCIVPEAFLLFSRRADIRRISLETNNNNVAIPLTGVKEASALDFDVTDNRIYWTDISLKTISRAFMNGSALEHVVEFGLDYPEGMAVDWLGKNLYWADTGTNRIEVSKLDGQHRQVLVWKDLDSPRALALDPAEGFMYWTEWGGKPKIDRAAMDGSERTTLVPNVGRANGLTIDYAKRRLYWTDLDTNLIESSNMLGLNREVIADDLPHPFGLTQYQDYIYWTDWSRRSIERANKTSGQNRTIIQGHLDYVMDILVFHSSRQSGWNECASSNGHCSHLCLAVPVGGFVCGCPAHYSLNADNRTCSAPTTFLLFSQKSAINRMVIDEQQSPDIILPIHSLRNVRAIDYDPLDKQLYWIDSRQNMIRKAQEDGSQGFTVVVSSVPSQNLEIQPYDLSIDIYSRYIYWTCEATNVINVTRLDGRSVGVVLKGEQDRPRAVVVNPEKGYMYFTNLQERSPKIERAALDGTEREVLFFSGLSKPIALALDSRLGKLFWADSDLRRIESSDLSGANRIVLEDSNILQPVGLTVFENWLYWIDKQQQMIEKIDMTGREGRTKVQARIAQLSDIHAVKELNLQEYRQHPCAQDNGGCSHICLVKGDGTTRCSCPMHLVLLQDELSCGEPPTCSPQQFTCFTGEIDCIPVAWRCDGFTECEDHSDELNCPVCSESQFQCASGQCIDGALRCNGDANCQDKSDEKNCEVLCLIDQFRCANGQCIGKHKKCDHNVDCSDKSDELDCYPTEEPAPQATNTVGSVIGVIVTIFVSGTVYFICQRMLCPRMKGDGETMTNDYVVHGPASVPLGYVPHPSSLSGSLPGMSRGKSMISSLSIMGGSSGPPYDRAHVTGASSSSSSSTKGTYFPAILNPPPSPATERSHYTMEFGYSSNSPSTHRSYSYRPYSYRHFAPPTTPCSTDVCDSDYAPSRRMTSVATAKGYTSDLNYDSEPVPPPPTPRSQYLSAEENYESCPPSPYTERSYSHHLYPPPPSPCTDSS

Tests used:
[1] = molecular target: T1, Kremen2 extracellular domain Fc fusion protein (human) (UniProt Q8NCW0); experiment: pull-down; Krm ECD-Fc proteins captured from cell culture medium on protein A-agarose beads; Dkk2FL or Dkk4FL added at 200 nM, 1 h at 4 °C; anti-His Western blot; only the binder purified
T1 sequence: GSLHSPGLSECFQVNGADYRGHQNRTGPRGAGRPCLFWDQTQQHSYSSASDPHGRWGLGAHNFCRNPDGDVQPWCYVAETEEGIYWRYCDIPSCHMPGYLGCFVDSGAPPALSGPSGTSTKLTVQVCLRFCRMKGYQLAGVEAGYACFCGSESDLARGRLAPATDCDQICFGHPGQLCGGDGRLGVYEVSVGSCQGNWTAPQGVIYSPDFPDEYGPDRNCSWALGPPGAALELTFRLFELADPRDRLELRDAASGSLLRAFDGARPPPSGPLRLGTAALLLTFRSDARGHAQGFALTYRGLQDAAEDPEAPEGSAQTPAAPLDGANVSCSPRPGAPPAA

[2] = molecular target: T2, Kremen1 extracellular domain Fc fusion protein (human) (UniProt Q96MU8); experiment: as above
T2 sequence: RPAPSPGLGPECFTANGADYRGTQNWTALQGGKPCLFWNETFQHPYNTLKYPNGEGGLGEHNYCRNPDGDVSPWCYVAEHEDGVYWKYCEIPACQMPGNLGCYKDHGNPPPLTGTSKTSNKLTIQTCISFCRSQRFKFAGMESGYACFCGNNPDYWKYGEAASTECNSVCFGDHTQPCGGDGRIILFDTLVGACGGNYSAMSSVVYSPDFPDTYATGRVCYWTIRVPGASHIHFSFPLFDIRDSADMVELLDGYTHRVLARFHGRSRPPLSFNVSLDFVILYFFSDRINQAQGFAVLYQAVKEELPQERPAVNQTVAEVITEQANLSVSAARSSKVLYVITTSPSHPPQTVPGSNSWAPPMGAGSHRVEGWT

[3] = molecular target: T2, Kremen1 extracellular domain Fc fusion protein (human); experiment: BLI; Krm1 ECD-Fc loaded from supernatants on AHC biosensors; Dkk2FL or Dkk4FL up to 1 μM; 25 mM Na2HPO4, 100 mM NaCl, 0.05% Triton X-100, pH 7.5; only the binder purified
[4] = molecular target: T3, isolated Kremen1 extracellular domain, Fc tag removed (human) (UniProt Q96MU8); experiment: NMR titration; 15N/1H TROSY of 15N/13C/2H-labelled Dkk4FL without and with a 10% molar excess of the unlabelled partner; minimal shift mapping; 25 mM Na2HPO4, 100 mM NaCl, pH 6.5, 35 °C; both purified
T3 sequence: T2 sequence

[5] = molecular target: full-length LRP6 expressed on transfected cells (UniProt O75581); experiment: flow cytometry on cells; cells transiently transfected with full-length LRP6 or empty vector; His6-tagged Dkk proteins 11-110 nM, 2 h at 4 °C in PBS with 10% fetal calf serum, 1% BSA, 0.1% NaN3; detected with anti-His-PE; only the binder purified
[6] = molecular target: T2, Kremen1 extracellular domain Fc fusion protein (human); experiment: condition: 100 μM (highest Dkk4N concentration given in the methods); BLI; Krm1 ECD-Fc loaded from supernatants on AHC biosensors; Dkk2FL or Dkk4FL 1-1000 nM, Dkk4N 0.1-100 μM; 25 mM Na2HPO4, 100 mM NaCl, 0.05% Triton X-100, pH 6.5; steady-state fit to a one-site model; only the binder purified

B1: full-length mature Dkk4 (Dickkopf 4), residues 19-224, His-tagged (natural protein, human, UniProt Q9UBT3 19-224, looked up)
chain: LVLDFNNIRSSADLHGARKGSQCLSDTDCNTRKFCLQPRDEKPFCATCRGLRRRCQRDAMCCPGTLCVNDVCTTMEDATPILERQLDEQDGTHAEGTTGHPVQENQPKRKPSIKKSQGRKGQEGESCLRTFDCGPGLCCARHFWTKICKPVLLEGQVCSRRGHKDTAQAPEIFQRCDCGPGLLCRSQLTSNRQHARLRVCQKIEKL
modifications: uniformly 15N/13C/2H-labelled in the NMR experiments
notes: residues numbered from the N-terminal methionine; also called Dkk4FL
In the case of B1, the binding [1] is reported as “binds”, the binding [2] is reported as “binds” and the binding [3] is reported as “no binding (condition: at pH 7.5; up to 1 μM)”. The binding [4] was “binds” and the binding [5] was “binds”.

B2: full-length mature Dkk2 (Dickkopf 2), residues 38-259, His-tagged (natural protein, human, UniProt Q9UBU2 38-259, looked up)
chain: IKSSLGGETPGQAANRSAGMYQGLAFGGSKKGKNLGQAYPCSSDKECEVGRYCHSPHQGSSACMVCRRKKKRCHRDGMCCPSTRCNNGICIPVTESILTPHIPALDGTRHRDRNHGHYSNHDLGWQNLGRPHTKMSHIKGHEGDPCLRSSDCIEGFCCARHFWTKICKPVLHQGEVCTKQRKKGSHGLEIFQRCDCAKGLSCKVWKDATYSSKARLHVCQKI
notes: also called Dkk2FL
For B2, the binding [1] was “binds”, the binding [2] was “binds” and the binding [3] was “no binding (condition: at pH 7.5; up to 1 μM)”. For the same binder, the binding [5] was “binds”.

B3: N-terminal region of Dkk4 including CRD1, residues 19-97 (domain or fragment)
chain: LVLDFNNIRSSADLHGARKGSQCLSDTDCNTRKFCLQPRDEKPFCATCRGLRRRCQRDAMCCPGTLCVNDVCTTMEDAT
With B3 the binding [6] was “no binding”.
